The values below come from the supplement of paper PMC4967469.

The IC50 is the concentration at which inhibition is half-maximal.

What all share (assay): Viability of human cancer cell lines after 72 h of drug (GDSC screen)
Compound in one assay: O=c1cc(-c2cccc3c2Sc2ccccc2S3)oc(N2CCOCC2)c1 [KU-55933]
To be noted: top dose 10 µM. As to the method:
(§1)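 Human cancer cell lines in 384-well plates, medium with 10% serum, drug for 72 h over a 256-fold dose range (nine 2-fold or five 4-fold steps up to the top dose). Adherent lines were fixed and stained with the nucleic acid dye Syto60, suspension lines read with resazurin; signal relative to control wells, capped at 0 and 100%. One two-parameter sigmoid per drug and line, fitted in a mixed model over all curves with the slope shared within a line.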

Compound in another assay: Cc1ccc(F)c(NC(=O)Nc2ccc(-c3cccc4[nH]nc(N)c34)cc2)c1 [ABT-869]
To be noted: top dose 1.024 µM; top dose inferred. As to the method: as §1

Compound in a further assay: COc1cc2ncnc(-n3nc(-c4ccccn4)nc3N)c2cc1OC [CP466722]
As to conditions: top dose 16 µM; top dose inferred. The protocol:
as §1

Compound in the next assay: C=CC(=O)Nc1cc(-n2c(=O)ccc3cnc4ccc(-c5cn[nH]c5)cc4c32)ccc1C [QL-X-138]
To be noted: top dose 10.24 µM; top dose inferred. The protocol:
as §1

Compound in the next assay: Cc1cnc(-c2cnc(NCCNc3ccc(C#N)cn3)nc2-c2ccc(Cl)cc2Cl)[nH]1 [CHIR-99021]
The protocol: as §1

Compound in another assay: COc1cc(N2CCC(O)CC2)ccc1Nc1cc(Nc2ccccc2S(=O)(=O)C(C)C)c2cc[nH]c2n1 [MPS-1-IN-1]
To be noted: top dose 20 µM; top dose inferred. The protocol:
as §1

Compound in the next assay: COc1cc(O)c2c(c1)/C=C/C[C@H](O)[C@H](O)C(=O)/C=C\C[C@H](C)OC2=O [(5Z)-7-Oxozeaenol]
As to conditions: top dose 10 µM; top dose inferred. As to the method: as §1

Compound in a further assay: C/C=C(/C)C(=O)O[C@H]1C(C)=C2[C@H]([C@@H]1OC(=O)CCCCCCC)[C@@](C)(OC(C)=O)C[C@H](OC(=O)CCC)[C@@]1(O)[C@H]2OC(=O)[C@@]1(C)O [Thapsigargin]
To be noted: top dose 0.512 µM; top dose inferred. The protocol: as §1

Compound in a further assay: CCn1c(-c2nonc2N)nc2cnc(Oc3cccc(NC(=O)c4ccc(OCCN5CCOCC5)cc4)c3)cc21 [GSK269962A]
To be noted: top dose 5 µM; screen: GDSC drug entry 1192; top dose inferred. The protocol: as §1

Compound in another assay: COc1nc(C)cnc1NS(=O)(=O)c1cccnc1-c1ccc(-c2nnco2)cc1 [Zibotentan]
As to conditions: top dose 20 µM; top dose inferred. The protocol:
as §1

Compound in the next assay: C[C@]1(c2nc3c(C(N)=O)cccc3[nH]2)CCCN1 [ABT-888]
To be noted: top dose 5 µM; top dose inferred. As to the method:
as §1

[1] abbreviates: top dose 2.56 µM, screen: GDSC drug entry 154.
Where [2] appears, read: top dose 10 µM, screen: GDSC drug entry 1241, top dose inferred.

Lines with a small IC50 respond at low doses; a limit (>, <) means that the fit lies beyond the doses tested. For AUC the same curve is integrated over the 256-fold range of doses and scaled to a fraction; values near 1 show little effect. For part of these data: Any top dose called inferred is not printed in the source and was worked back from the curve model. For part of these data: An entry number marks a drug with two screens in the source, which often give different values.

With SNU-423 (liver, adherent), the AUC was 0.97 with KU-55933; 0.982 in the assay with ABT-869; 0.685 with CP466722; 0.525 with QL-X-138; 0.835 with CHIR-99021 (setting [1]); 0.94 in the assay with CHIR-99021 (setting [2]). Also, the AUC with MPS-1-IN-1 amounted to 0.942; with (5Z)-7-Oxozeaenol, 0.688; with Thapsigargin it was 0.23; with GSK269962A, 0.738; in the assay with Zibotentan it was 0.982; in the assay with ABT-888, 0.979. The IC50 with KU-55933 is > 10 µM; in the assay with ABT-869, > 1.02 µM; in the assay with CP466722, 3.64 µM; with QL-X-138, 0.758 µM; with CHIR-99021 (setting [1]) it was 2.1 µM; in the assay with CHIR-99021 (setting [2]), > 10 µM. In addition, the IC50 with MPS-1-IN-1 was > 20 µM; in the assay with (5Z)-7-Oxozeaenol, 2.32 µM; with Thapsigargin, 0.00448 µM; with GSK269962A, 1.7 µM; in the assay with Zibotentan it was > 20 µM; in the assay with ABT-888, > 5 µM.
As to SU8686 (pancreas, adherent), the AUC was 0.975 with KU-55933; 0.984 in the assay with ABT-869; 0.936 with CP466722; 0.907 with QL-X-138; 0.986 in the assay with CHIR-99021 (setting [1]); 0.948 with CHIR-99021 (setting [2]). Further, the AUC in the assay with MPS-1-IN-1 was 0.974; with (5Z)-7-Oxozeaenol, 0.844; in the assay with Thapsigargin it was 0.377; with GSK269962A, 0.984; with Zibotentan, 0.984; with ABT-888, 0.986. The IC50 is > 10 µM in the assay with KU-55933; > 1.02 µM with ABT-869; > 16 µM in the assay with CP466722; > 10.2 µM with QL-X-138; > 2.56 µM with CHIR-99021 (setting [1]); > 10 µM with CHIR-99021 (setting [2]). In addition, the IC50 in the assay with MPS-1-IN-1 was > 20 µM; with (5Z)-7-Oxozeaenol it was 8.52 µM; in the assay with Thapsigargin it was 0.0141 µM; with GSK269962A, > 5 µM; in the assay with Zibotentan, > 20 µM; with ABT-888, > 5 µM.
With SU-DHL-5 (B-cell lymphoma, suspension), the AUC in the assay with KU-55933 was found to be 0.921; in the assay with ABT-869, 0.994; with CP466722, 0.695; in the assay with QL-X-138, 0.361; in the assay with CHIR-99021 (setting [1]), 0.96; with CHIR-99021 (setting [2]) it was 0.875. In addition, the AUC was 0.839 with MPS-1-IN-1; 0.354 with (5Z)-7-Oxozeaenol; 0.096 in the assay with Thapsigargin; 0.423 with GSK269962A; 0.99 with Zibotentan; 0.994 with ABT-888. Further, the IC50 is 8.62 µM in the assay with KU-55933; > 1.02 µM in the assay with ABT-869; 3 µM with CP466722; 0.292 µM with QL-X-138; > 2.56 µM in the assay with CHIR-99021 (setting [1]); 5.85 µM with CHIR-99021 (setting [2]). Also, the IC50 is 9.04 µM with MPS-1-IN-1; 0.275 µM with (5Z)-7-Oxozeaenol; 0.0027 µM with Thapsigargin; 0.203 µM in the assay with GSK269962A; > 20 µM in the assay with Zibotentan; > 5 µM with ABT-888.
Consider SW620 (large intestine, adherent), for which the AUC stood at 0.99 with KU-55933; 0.977 with ABT-869; 0.777 in the assay with CP466722; 0.671 with QL-X-138; 0.99 in the assay with CHIR-99021 (setting [1]); 0.987 with CHIR-99021 (setting [2]). Besides, the AUC came out at 0.876 in the assay with MPS-1-IN-1; 0.434 with (5Z)-7-Oxozeaenol; 0.148 with Thapsigargin; 0.929 with GSK269962A; 0.989 with Zibotentan; 0.989 with ABT-888. Further, the 50% inhibitory concentration (IC50) with KU-55933 is > 10 µM; in the assay with ABT-869 it was > 1.02 µM; with CP466722 it was 5.67 µM; in the assay with QL-X-138, 1.8 µM; with CHIR-99021 (setting [1]) it was > 2.56 µM; with CHIR-99021 (setting [2]) it was > 10 µM. Also, the IC50 with MPS-1-IN-1 is 15.9 µM; with (5Z)-7-Oxozeaenol it was 0.423 µM; in the assay with Thapsigargin it was 0.00314 µM; with GSK269962A, > 5 µM; in the assay with Zibotentan it was > 20 µM; with ABT-888, > 5 µM.
Regarding Saos-2 (osteosarcoma, adherent), the AUC with KU-55933 came out at 0.977; in the assay with ABT-869, 0.981; with CP466722 it was 0.981; in the assay with QL-X-138 it was 0.951; with CHIR-99021 (setting [1]) it was 0.97; with CHIR-99021 (setting [2]), 0.978. Besides, the AUC is 0.981 with MPS-1-IN-1; 0.743 with (5Z)-7-Oxozeaenol; 0.447 with Thapsigargin; 0.705 in the assay with GSK269962A; 0.981 with Zibotentan; 0.979 with ABT-888. Moreover, the IC50 is > 10 µM with KU-55933; > 1.02 µM with ABT-869; > 16 µM with CP466722; > 10.2 µM with QL-X-138; > 2.56 µM with CHIR-99021 (setting [1]); > 10 µM in the assay with CHIR-99021 (setting [2]). Further, the IC50 is > 20 µM with MPS-1-IN-1; 4.27 µM with (5Z)-7-Oxozeaenol; 0.0215 µM in the assay with Thapsigargin; 1.53 µM with GSK269962A; > 20 µM with Zibotentan; > 5 µM with ABT-888.
On to T-T (oesophagus, adherent), for which the AUC with KU-55933 came out at 0.9; in the assay with ABT-869, 0.987; with CP466722, 0.971; with QL-X-138, 0.904; with CHIR-99021 (setting [1]) it was 0.981; in the assay with CHIR-99021 (setting [2]), 0.948. For the same cell line, the AUC with MPS-1-IN-1 worked out at 0.889; with (5Z)-7-Oxozeaenol it was 0.805; in the assay with Thapsigargin, 0.055; with GSK269962A it was 0.868; with Zibotentan, 0.987; in the assay with ABT-888, 0.983. In addition, the IC50 with KU-55933 was > 10 µM; with ABT-869 it was > 1.02 µM; with CP466722 it was > 16 µM; with QL-X-138, > 10.2 µM; with CHIR-99021 (setting [1]), > 2.56 µM; with CHIR-99021 (setting [2]) it was > 10 µM. Besides, the IC50 was > 20 µM in the assay with MPS-1-IN-1; 5.04 µM in the assay with (5Z)-7-Oxozeaenol; < 0.002 µM with Thapsigargin; 4.52 µM with GSK269962A; > 20 µM with Zibotentan; > 5 µM with ABT-888.
